Reference: PubChem BioAssay AID1347071 (National Center for Advancing Translational Sciences (NCATS), 2019)
In all, about 410,000 compounds went through this assay and about 260 (0.063%) were called active. Inconclusive means that the source gave no clear call. Such entries were picked first, then a sample of the others. Calls come from the whole dose curve; as a rule, active = well fitted activation curve with a large enough effect; inconclusive = small, poorly fitted or top-dose-only effect; inactive = no such curve, though single readings can be large or run the other way. No potency is given beside an inconclusive call; the fits are too rough.

test: qHTS for compounds that reverse cellular toxicity of Amyloid beta (A-beta) peptide in yeast: Primary Screen; settings: yeast expressing A-beta42, growth rescue, OD600, 48 h; growth rescue: at 46.1 µM (top of the series), 0% DMSO, 100% iron-clioquinol control; note: nearly all actives have a fitted effect of over 55% in size
Source text: The A-beta peptide is produced by the processing of the amyloid precursor protein (APP) by two proteases, beta and gamma secretases. […] A-beta42 is regarded as the most amyloidogenic form due to its hydrophobicity; however, precisely how A-beta42 induces neurotoxicity is unclear. To understand further this biology and its potential therapeutic implications for human neurodegenerative disease, a quantitative high-throughput screen for compounds that reverse the cellular toxicity of the A-beta peptide was developed. A yeast based screen was used because it recapitulates the salient feature of protein mis-folding disorder accurately. This cell-based phenotypic screen provides a significant, unbiased advantage by letting the compounds and models inform us which proteins or pathways are most relevant. The ideal chemical candidates would therefore have activity in both our primary yeast and secondary neuronal toxicity assays, as well as in mouse models. They will be valuable tools for dissecting diverse protein homeostasis pathologies and could potentially become the focus for future pre-clinical development. For this luminescence assay, inhibition of A-beta rescues the toxic effect in the yeast cell, resulting in increase of signals and the desired phenotype of "Activator". This screen is run against the Molecular Libraries Small Molecule Repository (MLSMR) and the NCGC Sytravon Library Collection.
NIH Chemical Genomics Center [NCGC]
NIH Molecular Libraries Probe Centers Network [MLPCN]
Assay Submitter (PI): Susan Lindquist, Whitehead Institute, Massachusetts Institute of Technology
[1] Vassar R,et al (1999). Beta-secretase cleavage of Alzheimer's amyloid precursor protein by the transmembrane aspartic protease BACE. Science. 286: 735-741.
[2] Yan R, et al (1999). Membrane-anchored aspartyl protease with Alzheimer's disease beta-secretase activity. Nature. 402: 533-536.
Two and a half microliter / well of yeast growth medium were dispensed in a 1536 assay plate. Compounds were pinned using the Kalypsys robotic system followed by addition of 2.5 uL / well yeast solution. The assay plates were incubated at 30 C. After 48 hr, the absorbance signal at 600 nm was obtained using the PerkinElmer ViewLux plate reader to assess yeast growth. The data was normalized to the positive control of an equimolar mixture of ferric chloride (FeCl3) and clioquinol and to the negative control DMSO.
Potency is the fitted concentration of half-maximal effect; tags give direction and shape of the fitted curve.

Question: With O=C(Nc1ccc(C(F)(F)F)cc1Cl)c1ccc(Cn2cc(Br)cn2)o1 as the molecule, how does the “growth rescue” value read?
Answer: inactive: -26.6%

Question: With COc1cccc(NC(=O)CSc2ccc3nnc(CCNC(=O)c4ccccc4)n3n2)c1 as the molecule, how does the Potency read?
Answer: inconclusive [activator, single point]

Question: Which Potency does the source give for Oc1ccc(N=Nc2ccc3c(c2)OCCO3)c2cccnc12 here?
Answer: inconclusive [activator, single point]

Question: Which “growth rescue” value does the source give for c1ccc(-c2cnc(CSc3ncnc4sccc34)o2)cc1 here?
Answer: inactive: -63.5%

Question: With CCc1nnc(NC(=O)c2ccc(S(=O)(=O)N(C)c3ccccc3)cc2)o1 as the molecule, how does the Potency read?
Answer: inconclusive [activator, partial curve, poor fit]

Question: For CC(=O)OC(COc1cccc(C)c1)Cn1cnc2ccccc21 (configuration not stated), which Potency is on record?
Answer: inconclusive [activator, partial curve, poor fit]

Question: For COc1ccc(C(=O)NCCc2cn3ccccc3n2)cc1, which Potency is on record?
Answer: inconclusive [activator, single point]

Question: For COc1ccc(-c2n[nH]c(=S)nc2-c2ccc(OC)cc2)cc1, which Potency is on record?
Answer: inconclusive [activator, single point]

Question: For COc1ccc(NC(=S)NCCCN2CCOCC2)cc1, which Potency is on record?
Answer: inconclusive [activator, single point]

Question: Which “growth rescue” value does the source give for O=C(NC(c1cccnc1)C(F)(F)F)c1cc(COc2ccc3c(c2)CCCC3)on1 (configuration not stated) here?
Answer: inactive: 7.7%

Question: Which Potency does the source give for O=C(COc1ccc(Br)cc1)NCc1ccccn1 here?
Answer: inconclusive [activator, full curve]

Question: For CNC(=S)N(CCc1c(C)[nH]c2ccc(C)cc12)Cc1cccs1, which Potency is on record?
Answer: inconclusive [activator, partial curve, poor fit]

Question: For COc1ccc(-c2nnc(NC(=O)c3ccc(F)cc3)o2)cc1, which Potency is on record?
Answer: inconclusive [activator, partial curve, poor fit]

Question: With COc1ccccc1CNC(=O)Cc1csc2nc(-c3ccccc3)cn12 as the molecule, how does the Potency read?
Answer: inconclusive [activator, partial curve, poor fit]

Question: For O=C(CCC1N=C2c3ccccc3N=C(SCc3ccccc3F)N2C1=O)NCCc1ccccc1 (configuration not stated), which “growth rescue” value is on record?
Answer: inactive: -8.87%

Question: For Cc1cccc(C(=O)NC2CC(C)(C)NC(C)(C)C2)c1, which Potency is on record?
Answer: inconclusive [activator, partial curve, poor fit]

Question: Which Potency does the source give for CCCc1nc2cc(C)c(Br)c(C)n2c1Cc1ccccc1OC here?
Answer: inconclusive [activator, single point]

Question: For CCOc1ccccc1NC(=S)N1CCN(c2nc(-c3ccc(F)cc3)cs2)CC1, which Potency is on record?
Answer: inconclusive [activator, single point]

Question: With O=C(NCCNc1ccc([N+](=O)[O-])cc1C(F)(F)F)c1ccccc1 as the molecule, how does the “growth rescue” value read?
Answer: inactive: -0.235%

Question: Which Potency does the source give for Cc1ccc(Cl)cc1N1CCN(CC(=O)NC2CCCc3ccccc32)CC1 (configuration not stated) here?
Answer: inconclusive [activator, partial curve, poor fit]

Question: For CCCCN(CC)C(=O)c1cc2c(=O)n3ccccc3nc2n1C, which “growth rescue” value is on record?
Answer: inactive: 7.45%

Question: For CCc1ccc(OC(=O)CN2C(=O)c3ccccc3C2=O)cc1, which “growth rescue” value is on record?
Answer: inactive: 6.47%

Question: With O=c1/c(=C/c2ccco2)sc2n1CN(c1ccccc1)CN=2 as the molecule, how does the “growth rescue” value read?
Answer: inactive: -7.8%

Question: Which Potency does the source give for Cc1ccc(CN2C(=O)SC(Nc3ccc(Cl)cc3)C2=O)cc1 (configuration not stated) here?
Answer: inconclusive [activator, partial curve, poor fit]

Question: For Cc1cc2c(c(C)c1Cl)C(c1ccc3c(c1)OCO3)CC(=O)O2 (configuration not stated), which Potency is on record?
Answer: inconclusive [activator, single point]

Question: Which Potency does the source give for Nc1nc(Nc2ccccc2F)nc(NC2CCCCC2)c1[N+](=O)[O-] here?
Answer: inconclusive [activator, full curve, poor fit]

Question: For O=C(N/N=C\CCc1ccccc1)c1ccco1, which Potency is on record?
Answer: inconclusive [activator, single point]

Question: Which “growth rescue” value does the source give for COc1cc(C(=O)OCn2nnc3ccccc3c2=O)cc(OC)c1OC here?
Answer: inactive: 7.17%

Question: Which Potency does the source give for CC(=O)Nc1ccc(/C=N/NS(=O)(=O)c2cc(C)ccc2C)cc1 here?
Answer: inconclusive [activator, partial curve]

Question: With Oc1cccc2c(NC(=S)Nc3ccc(OC(F)F)cc3)cccc12 as the molecule, how does the Potency read?
Answer: inconclusive [activator, partial curve]

Question: With CN(CC(=O)Nc1ccc(F)cc1)C(=O)COc1ccccc1Cc1ccccc1 as the molecule, how does the Potency read?
Answer: inconclusive [activator, partial curve, poor fit]

Question: Which Potency does the source give for COc1ccc(NC(=O)CN2C(=O)NC3(CCCC3)C2=O)cc1OC here?
Answer: inconclusive [activator, single point]

Question: For CCCn1c(SCC(=O)N2c3ccccc3Sc3ccccc32)nc2ccccc21, which Potency is on record?
Answer: inconclusive [activator, partial curve, poor fit]

Question: With COc1ccc(NC(=O)C2CCC(C(C)(C)C)CC2)cc1S(=O)(=O)N1CCOCC1 (configuration not stated) as the molecule, how does the Potency read?
Answer: inconclusive [activator, partial curve]

Question: With Cc1ccc(NC(=S)NCc2ccc3[nH]c4c(c3c2)CCCC4)cc1 as the molecule, how does the Potency read?
Answer: inconclusive [activator, single point]

Question: Which Potency does the source give for CC(C)Oc1ccc(CNC(=S)Nc2ccccc2)cc1Cl here?
Answer: inconclusive [activator, single point]

Question: Which Potency does the source give for Cc1cccc2sc(NC(=O)Cn3cccc3)nc12 here?
Answer: active: 11.2 µM

Question: For COC(=O)[C@]12CCCCC=C1N(Cc1cccc3ccccc13)C(=O)[C@H](CC(=O)NCCC(C)C)C2, which “growth rescue” value is on record?
Answer: inactive: 0.137%

Question: Which growth rescue does the source give for O=C(NC1CCCC1)C1CC(=O)N(C2CCCCCCC2)C1 (configuration not stated) here?
Answer: inconclusive: -28.5% [activator]

Question: Which “growth rescue” value does the source give for COCCNC(=O)Cc1c(C)c2c(cc(C)c3c(C)coc32)oc1=O here?
Answer: inactive: -0.433%

Question: Which Potency does the source give for CCOC(=O)c1cnn(-c2ccccc2)c1-n1cccc1C(=O)C(=O)Nc1ccc(OC)cc1 here?
Answer: inconclusive [activator, full curve]

Question: For c1ccc2c(c1)Cn1nc(Cc3nc4c(s3)CCCC4)nc1-2, which Potency is on record?
Answer: inconclusive [activator, partial curve, poor fit]

Question: Which Potency does the source give for CCCCC1CCC(C(=O)N2CC(=O)Nc3ccc(F)cc3C2c2ccc(F)cc2)CC1 (configuration not stated) here?
Answer: inconclusive [activator, partial curve, poor fit]

Question: Which Potency does the source give for Cc1c(Br)c(C(F)(F)F)nn1CC(=O)N(C)C1CCCCC1 here?
Answer: inconclusive [activator, partial curve, poor fit]

Question: Which Potency does the source give for Cc1ccc(N(CC(=O)NC(C)(C)C)C(=O)CNC(=O)c2cccs2)c(C)c1 here?
Answer: inconclusive [activator, single point]

Question: Which “growth rescue” value does the source give for COC(=O)c1c(NC(=O)C2Cc3ccccc3C(=O)O2)sc2c1CCCC2 (configuration not stated) here?
Answer: inactive: -4.61%

Question: Which “growth rescue” value does the source give for CCCCN(CCCC)c1ncnc2c1cnn2-c1cccc(C)c1 here?
Answer: inactive: -25.6%

Question: With CCOC(=O)C1=C(O)/C(=C/c2ccc(OCC(=O)O)c(OCC)c2)SC1=Nc1ccc(C)cc1 as the molecule, how does the “growth rescue” value read?
Answer: inactive: -7.99%

Question: With CC(C)c1ccc(O)c(NC(=S)NC(=O)c2cccnc2)c1 as the molecule, how does the Potency read?
Answer: inconclusive [activator, partial curve, poor fit]

Question: Which Potency does the source give for CC(C)(C)NC(=O)C(=O)NNC(=O)c1ccc(C(C)(C)C)cc1 here?
Answer: inconclusive [activator, single point]

Question: Which Potency does the source give for CN1/C(=C/C(=O)CSc2ccccc2C(=O)O)C(C)(C)c2ccccc21 here?
Answer: inconclusive [activator, full curve, poor fit]

Question: With CC(C)C(=O)NCCc1c[nH]c2ccccc12 as the molecule, how does the Potency read?
Answer: inconclusive [activator, full curve]

Question: Which Potency does the source give for CC1CCCCC1NC(=S)NC(=O)c1ccccc1Cl (configuration not stated) here?
Answer: inconclusive [activator, partial curve, poor fit]

Question: With N#C/C(=C\c1ccc(Cl)cc1)C(=O)Nc1cccnc1 as the molecule, how does the Potency read?
Answer: active: 12.6 µM

Question: Which Potency does the source give for Cc1ccnc(NC(=O)C2CCN(S(=O)(=O)c3cccc(C(F)(F)F)c3)CC2)c1 here?
Answer: inconclusive [activator, partial curve, poor fit]

Question: For Cc1cccc(NC(=O)c2nc[nH]c2C(=O)NCC(=O)OC(C)(C)C)c1, which Potency is on record?
Answer: inconclusive [activator, single point]

Question: For CCCCCC1CC(CC(=O)Nc2ccc([N+](=O)[O-])cc2)OC1=O (configuration not stated), which Potency is on record?
Answer: inconclusive [activator, full curve]

Question: For CCOc1ccc(C(C)NC(=S)NC2CCCCC2)cc1 (configuration not stated), which Potency is on record?
Answer: inconclusive [activator, full curve, poor fit]

Question: For COC(=O)/C=C1/SC(=NC(=O)c2ccccc2)NC1=O, which Potency is on record?
Answer: inconclusive [activator, partial curve, poor fit]

Question: For COc1ccc(Nc2nn3c(=O)c4cc5c(cc4nc3s2)OCO5)c(OC)c1, which “growth rescue” value is on record?
Answer: inactive: -24%

Question: Which Potency does the source give for O=c1[nH]c(CN2CCN(c3ccc(O)cc3)CC2)nc2scc(-c3ccc(Cl)cc3)c12 here?
Answer: inconclusive [activator, partial curve]

Question: Which “growth rescue” value does the source give for CC(C)CCNC(=O)C1CCN(C(=O)c2cc3sccc3n2Cc2ccc(Cl)cc2)CC1 here?
Answer: inactive: -1.21%

Question: For N=C1/C(=C/c2cccn2Cc2ccc(F)cc2)C(=O)N=C2SC=CN12, which Potency is on record?
Answer: inconclusive [activator, full curve]

Question: Which Potency does the source give for C/C(=N\NC(=S)NCc1ccccc1)c1ccc(Br)cc1 here?
Answer: inconclusive [activator, single point]

Question: Which Potency does the source give for Clc1ccc(-c2ncc3ccccn23)c(Cl)c1 here?
Answer: inconclusive [activator, single point]

Question: With CNNC(=S)NC1CC2CC1C1C=CCC21 (configuration not stated) as the molecule, how does the Potency read?
Answer: inconclusive [activator, partial curve, poor fit]

Question: Which Potency does the source give for O=C(NC(=S)N1CCc2ccccc21)c1ccco1 here?
Answer: inconclusive [activator, single point]
